Source: PubChem BioAssay AID686978 (National Center for Advancing Translational Sciences (NCATS), 2013)
In all, about 420,000 compounds went through this assay and about 64,000 (15%) were called active. The inconclusive results got no clear call from the source; some entries with a clear call stand among them for comparison. Calls come from the whole dose curve; as a rule, active = well fitted inhibition curve with a large enough effect; inconclusive = small, poorly fitted or top-dose-only effect; inactive = flat fitted curve, though single readings scatter. Potencies of inconclusive entries are left out as doubtful fits.

Assay: qHTS for Inhibitors of human tyrosyl-DNA phosphodiesterase 1 (TDP1): qHTS in cells in absence of CPT; note: nearly all actives have a fitted effect of over 55% in size
Conditions: DT40 Tdp1-/- hTDP1 cells, no CPT, ATP luminescence, 48 h; activity change, negative = growth inhibition: at 46.2 µM (top of the series) unless noted
In short: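 Readout: luminescence from CellTiter-Glo after 30 min in the dark at RT. Cells: DT40 Tdp1-/- with stable hTDP1, 400/well. Exposure: compounds alone, ≥48 hr, 37 °C.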
% is set by controls: 0 for no effect and ±100 for the full control effect; potency is the fitted concentration of half-maximal effect; tags give direction and shape of the fitted curve.

SMILES	Potency	activity change, negative = growth inhibition
C=CC(C)(C)c1[nH]c2ccccc2c1C1=C(O)C(=O)C(c2c[nH]c3c(CC=C(C)C)cccc23)=C(O)C1=O	active: 13.3 µM	
CC(C)n1cnc2c(NCc3ccccc3)cc(OCC3CCN(C)CC3)cc21	inconclusive [inhibitor, single point]	
CCOc1cccc2c1OC1(CCCCC1)N1N=C(c3cccnc3)CC21 (stereo not given)	inconclusive [inhibitor, single point]	
COc1ccc(OC)c(S(=O)(=O)Nc2ccccc2SC)c1	inconclusive [inhibitor, single point]	
CC(C)C[C@H]1CN([C@@H](Cc2ccc(O)cc2)CN2CCC[C@@H]2CN2C(=O)C(=O)NC[C@@H]2Cc2ccccc2)C(=O)C(=O)N1CC1CCCCCC1	inconclusive [inhibitor, single point]	
CN(C)c1ccc(-c2cc(-n3ccnc3)ncn2)cc1	inconclusive [inhibitor, single point]	
COc1ccc(C2CC(c3cccs3)=NN2C(=O)COC(=O)c2cncc(Br)c2)cc1OC (stereo not given)	inconclusive [inhibitor, full curve, poor fit]	
COC(=O)c1ccccc1N(Cc1ccccc1)S(C)(=O)=O		inactive: -5.36%
O=C(COc1ccccc1)NCC(c1ccco1)N1CCN(c2ccccc2F)CC1 (stereo not given)	inconclusive [inhibitor, single point]	
CCOC(=O)c1ccc(N=C2SC(C(=O)NCCc3ccccc3)CC(=O)N2C)cc1 (stereo not given)	inconclusive [inhibitor, single point]	
Fc1cccc(Cc2c(C3CCCCC3)nc3ccc(Br)cn23)c1	inconclusive [inhibitor, single point]	
CC(C)C1NCCc2c1sc1ccccc21 (stereo not given)	inconclusive [inhibitor, single point]	
O=C1OCCN1C(=O)[C@H]1[C@H](c2ccc(Cl)cc2)C(c2ccc(F)cc2)=NN1c1ccccc1	inconclusive [inhibitor, single point]	
N#CCC(=O)Nc1ccc(C(=O)N2CCN(S(=O)(=O)c3ccc4ccccc4c3)CC2)cc1		inactive: 13.3%
CCn1c(SCC#N)nc2ccccc2c1=O	inconclusive [inhibitor, single point]	
CCC(C)c1ccc(OCC(=O)Nc2ccc3c(c2)C(=O)NC3=O)cc1 (stereo not given)	inconclusive [inhibitor, single point]	
CCOC(=O)C1=C(C)N=C2SC(C(=O)OC)=CC(=O)N2C1c1ccc(F)cc1 (stereo not given)	inconclusive [inhibitor, full curve]	
COc1ccc(C(=O)N2c3ccc(F)cc3CCC2C)cc1OC (stereo not given)	inconclusive [inhibitor, partial curve]	
CCCS(=O)(=O)c1nc(S(=O)(=O)c2ccc(C)cc2)c(N2CCCCC2)s1	inconclusive [inhibitor, single point]	
Cn1c(=O)oc2cc(S(=O)(=O)N3CCC4(CC3)OCCO4)ccc21		inactive: -17.7%

SMILES	Potency	activity change, negative = growth inhibition
CC(=O)N1c2ccc(S(=O)(=O)NCC3CCC(C(=O)Nc4cccc(C)n4)CC3)cc2CC1C (stereo not given)	active: 18.4 µM	
CCOC(=O)/C(=N\Nc1ccccc1Cl)N1CC(C)OC(C)C1 (stereo not given)	inconclusive [inhibitor, single point]	
Cc1ccc2c(c1)-c1c(ssc1=S)C(C)(C)N2C(=O)CSC1=NCCS1	inconclusive [inhibitor, single point]	
CC(CC(=O)Nc1cccc(S(=O)(=O)N2CCCCC2)c1)c1ccccc1 (stereo not given)	inconclusive [inhibitor, single point]	
CC1CCC(C(C)C)C(OC(=O)COC(=O)c2ccc(N)cc2)C1 (stereo not given)	inconclusive [inhibitor, single point]	
O=C(COc1ccc2oc3c(c2c1)CCCC3)Nc1cccc(Br)c1	active: 20.6 µM	
COc1ccc2c(c1)[C@@H]1[C@H](CO2)[C@H](c2ccccc2)[C@]2(C)C(=O)NCC(=O)N12		inactive: -25.7%
NS(=O)(=O)c1ccc(N=Cc2c(O)n(-c3nccs3)c(=O)c3ccccc23)cc1	inconclusive [inhibitor, full curve, poor fit]	
COC(=O)CC1(c2cccc3ccccc23)C(=O)c2ccccc2C1=O	inconclusive [inhibitor, partial curve]	
CCN1/C(=C\c2ccc3ccccc3[n+]2CC)Sc2cc(C)ccc21	active: 0.184 µM	
COc1ccc(C(=O)N/N=C\c2ccc(OC)c(COc3ccccc3Br)c2)c(OC)c1	inconclusive [inhibitor, single point]	
CN(C(=O)C1CCN(S(=O)(=O)c2ccccc2[N+](=O)[O-])CC1)C1CCCCC1	inconclusive [inhibitor, single point]	
COc1cc2sc(-c3ccccc3OC)c(-c3ccc(OCCN4CCCCC4)cc3)c2cc1OC	inconclusive [inhibitor, single point]	
O=C(COc1ccc(Cl)cc1)NCCCNC(=O)c1ccncc1		inactive: -9.47%
Cc1nc(N2CCN(C(=O)c3ccco3)CC2)c(C#N)c2c1CCCC2	inconclusive [inhibitor, single point]	
COc1ccc(NC(=O)C2Cc3c(-c4ccc5c(c4)OCO5)ccnc3O2)cc1 (stereo not given)	active: 8.2 µM	
O=C(CNc1ccccc1)N/N=C/c1c[nH]c2ccccc12	inconclusive [inhibitor, single point]	
C#CCOCCOCCOCCNc1nc(N2CCN(C(=O)CCCCCCCCCCNC(=O)[C@@H](CCC(=O)O)n3cc(CCCCCN)nn3)CC2)nc(N2CCN(C(=O)CCCCCCCCCCNC(=O)[C@@H](CCC(=O)O)n3cc(CCCCCN)nn3)CC2)n1		inactive: -6.63%
O=C(O)c1cccc(NC(=O)c2ccc(S(=O)(=O)c3ccccc3)cc2)c1		inactive: -24.2%
COc1cccc(N/N=C/c2cccc(Br)c2O)c1	inconclusive [inhibitor, single point]	
